# Experimental data reported in article PMC4336329 (PLoS ONE, 2015).
# The whole screen tested about 310,000 compounds, of which about 14,000 (4.5%) showed an effect of 50% or more. The effect is printed as a negative number. This is one part of the list.
# Target: human ether-à-go-go-related gene (hERG) potassium channel (human, UniProt Q12809)
# Assay: primary screen, population patch clamp on CHO cells stably expressing hERG
# 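Note: peak tail current of the secondary pulse compared with the same well before compound.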
# Chain of human ether-à-go-go-related gene (hERG) potassium channel (Q12809 whole entry, looked up): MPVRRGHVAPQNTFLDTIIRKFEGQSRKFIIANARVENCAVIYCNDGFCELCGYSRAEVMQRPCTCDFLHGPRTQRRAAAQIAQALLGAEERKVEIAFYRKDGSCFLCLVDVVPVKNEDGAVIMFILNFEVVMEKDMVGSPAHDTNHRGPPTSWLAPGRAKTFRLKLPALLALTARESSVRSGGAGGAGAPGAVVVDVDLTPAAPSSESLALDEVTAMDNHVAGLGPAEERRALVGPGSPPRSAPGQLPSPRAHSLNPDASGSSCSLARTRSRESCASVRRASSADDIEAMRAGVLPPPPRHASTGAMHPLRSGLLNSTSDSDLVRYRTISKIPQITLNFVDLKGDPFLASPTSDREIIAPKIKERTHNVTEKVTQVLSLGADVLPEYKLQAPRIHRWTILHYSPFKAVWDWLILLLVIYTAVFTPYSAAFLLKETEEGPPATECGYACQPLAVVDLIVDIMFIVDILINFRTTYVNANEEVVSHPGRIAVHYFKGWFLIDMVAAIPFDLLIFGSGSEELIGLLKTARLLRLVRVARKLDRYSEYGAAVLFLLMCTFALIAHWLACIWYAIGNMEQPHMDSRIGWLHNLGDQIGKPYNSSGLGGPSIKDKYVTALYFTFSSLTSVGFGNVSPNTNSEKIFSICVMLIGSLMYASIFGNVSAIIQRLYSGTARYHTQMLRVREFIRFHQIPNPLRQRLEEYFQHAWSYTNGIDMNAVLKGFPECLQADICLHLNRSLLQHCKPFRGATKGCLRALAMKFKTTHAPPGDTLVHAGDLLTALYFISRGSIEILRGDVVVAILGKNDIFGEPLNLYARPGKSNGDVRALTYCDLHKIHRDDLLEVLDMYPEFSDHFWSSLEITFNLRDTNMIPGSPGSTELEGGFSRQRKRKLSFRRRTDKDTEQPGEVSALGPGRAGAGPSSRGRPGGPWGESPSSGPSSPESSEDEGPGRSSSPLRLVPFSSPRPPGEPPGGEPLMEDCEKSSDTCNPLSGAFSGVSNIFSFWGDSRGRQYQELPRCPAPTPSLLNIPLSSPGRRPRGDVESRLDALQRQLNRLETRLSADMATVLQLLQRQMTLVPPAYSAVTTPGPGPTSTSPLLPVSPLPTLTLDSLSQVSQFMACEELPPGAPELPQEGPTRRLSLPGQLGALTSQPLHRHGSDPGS
row,SMILES,"hERG current change (%, negative = inhibition) at 10uM [%]"
1,CS(=O)(=O)c1ccc(NCCN2CCOCC2)c([N+](=O)[O-])c1,16.8
2,CCOC(=O)N1CCN(S(=O)(=O)c2ccc(C)cc2)CC1,17.9
3,CCOC(=O)CCc1c(C)c2ccc3c(c2oc1=O)CN(CCCO)CO3,21.6
4,CCOC(=O)CCP(=O)(O)C(O)c1ccc(OC)cc1 (stereo not drawn),13.1
5,C=CCn1c(CNC(=O)c2ccccc2C)nnc1SCC(=O)NC1CCCC1,6.72
6,CC(=O)c1sc(NC(=O)C2CCCN2S(=O)(=O)c2ccccc2F)nc1C (stereo not drawn),15.5
7,CCCOCC(O)CC(CC)C(=O)NNC(=S)Nc1ccccc1 (stereo not drawn),14.9
8,CC(C)(C)C1COc2ccccc2N1C(=O)c1cccc(Cl)c1 (stereo not drawn),9.89
9,Cc1cc(C)c2nc(NNC(=O)c3cc(=O)c4ccccc4o3)sc2c1,8.98
10,COc1ccc(OCC(=O)N/N=C/c2ccc(N(C)C)cc2)cc1,12.2
11,Cn1nc(C(F)(F)F)c(-c2cccc(C(F)(F)F)c2)c1NC(=O)CSCC(=O)O,1.52
12,CS(=O)(=O)N1CCc2cc(C(=O)Nc3ccccc3)ccc21,-1.25
13,c1cc(-c2sc(-c3ccncc3)c(-c3ccncc3)c2-c2ccncc2)ccn1,-66.6
14,CCOC(=O)C1CCCN(C(=O)c2cn(CC)c(=O)c3cc(OC)c(OC)cc23)C1 (stereo not drawn),12.3
15,Cc1cccc(OCCCC(=O)Nc2ccc(S(=O)(=O)Nc3nccs3)cc2)c1C,10.7
16,COc1nc(NC2CCCCC2)nc(NC(C)(C)C)n1,-32.9
17,CCc1nnc(NC(=O)CC(C)c2ccccc2)s1 (stereo not drawn),14.6
18,Cc1cccc(Cl)c1OCCCCn1ccnc1,-25.9
19,O=C(NCCCn1ccnc1)c1cc(S(=O)(=O)N2CCOCC2)ccc1F,26.8
20,CCOCCCNC(=O)c1ccc(NC(=O)C2CCCO2)cc1 (stereo not drawn),10.9
21,CC(C)(C)[C@H]1CCC(=O)N([C@H](CSc2ccccc2)Cc2ccccc2)CC1,-3.06
22,O=c1[nH]c(Cc2ccccc2)nc2ccccc12,9.09
23,Cc1[nH]c2ccc(C(=O)N3CCCC3)cc2c1C,-11.2

row,SMILES,"hERG current change (%, negative = inhibition) at 10uM [%]"
1,N/C(=N\O)c1ccccc1N1CCCCC1,-2.03
2,C=CCOC(=O)COc1ccc2c(C)c(C)c(=O)oc2c1,-27.5
3,CCOC(=O)N1CCN(c2c(NCc3cccs3)c(=O)c2=O)CC1,9.04
4,Cn1c(=O)c2c(nc(SCCN3CCOCC3)n2Cc2cccc3ccccc23)n(C)c1=O,-48.3
5,O=C(CCCN1C(=O)/C(=C\c2ccco2)SC1=S)Nc1ccc(O)cc1C(=O)O,23.4
6,C=CCN1C=C2C(=O)C(C)(OC(=O)c3cccs3)C(=O)C=C2C=C1CCCC(=O)OC (stereo not drawn),-10.6
7,COc1ccccc1S(=O)(=O)Cc1ccc(C(=O)NCc2ccc(C)cc2)o1,-28.4
8,Cn1c(SCC(=O)C(C)(C)C)nnc1-c1ccc(F)cc1,6.19
9,CCc1nc(C)ccc1OCC(=O)N1CCc2c([nH]c3ccccc23)C1c1ccccn1 (stereo not drawn),-44
10,COCCN(C(=O)COC(=O)/C=C/c1ccc2ccccc2n1)c1c(N)n(Cc2ccccc2)c(=O)[nH]c1=O,17.1
11,COCC1CCCCN1C(=O)c1cccc(OC2CCN(C(=O)C3CC3)CC2)c1 (stereo not drawn),-9.38
12,CCCCC1=CC2=CC(=O)C(C)(OC(=O)CC)C(=O)C2=CN1CCc1c[nH]c2ccccc12 (stereo not drawn),-3.97
13,CN(C)CCCC(C)(O)C(C)(C)c1ccccc1.Cl (stereo not drawn),-3.15
14,O=c1cc(CSc2ccc(Cl)cc2)nc(N2CCCCC2)[nH]1,8.16
15,CN1CCc2nc(SC(C(=O)O)c3ccccc3)c(C#N)c(-c3cccs3)c2C1 (stereo not drawn),19.4
16,CCCCN(C(=O)C1CSC2(C)CCC(=O)N12)c1c(N)n(CC(C)C)c(=O)[nH]c1=O (stereo not drawn),11
17,COc1ccc2oc(C(=O)OCC(=O)Nc3ccc(OC)c(S(N)(=O)=O)c3)c(C)c2c1,-4.61
18,COc1ccc(/C=C/C(=O)c2ccccc2)cc1Cn1nnc2ccccc21,14.1
19,CCOC(=O)[C@@H]1[C@H]2COc3ccccc3[C@@H]2N2C(=O)N(c3ccc(C)cc3)C(=O)[C@]12C,-1.58
20,CCCCC1=CC2=CC(=O)C(C)(OC(=O)CC)C(=O)C2=CN1CC(C)C (stereo not drawn),2.23
21,CCOC(=O)C1=C(SCC(=O)Nc2ccccc2)NC(=O)C(C#N)C12CCCCC2 (stereo not drawn),-5.43
22,COC(=O)C(NC(=O)C(C)NC(=O)OCc1ccccc1)C(C)C (stereo not drawn),20.3
